Data reported in patent US20090241221A1, “TANDEM REAPEAT DNA CONSTRUCTS PRODUCING PROTEINS THAT ATTACK PLANT PATHOGENIC VIRUSES, FUNGI, AND BACTERIA BY DISRUPTING TRANSCRIPTION FACTORS ESSENTIAL FOR REPLICATION THEREOF IN PLANTS” (priority 2008, published 2009).

What was measured:
[1] = molecular target: Zn (HIV1-F1) zinc finger peptide (Human immunodeficiency virus type 1 group M subtype B, UniProt P03348); details: for binding site on the zinc finger peptide by NMR: 1H NMR titration
[2] = tested on: normal cells (BALB 3T3, NRK, WI-348); details: Untransformed BALB 3T3, NRK and WI-348; cited from earlier work
[3] = tested on: normal cells (BALB 3T3, NRK, WI-348); test: Growth control and cell cycle arrest in normal cells; details: short-term treatment

Compound: CCCCc1ccc(C(=O)O)nc1 [fusaric acid, 5-butyl picolinic acid]
- binding site on the zinc finger peptide by NMR [1]: bind Zn (HIV1-F1) at a hydrophobic cleft
- mode of binding in 1H NMR titration ([1]; peptide 1.63 mM, Zn^2+ 2 mM, free zinc minimized): competitively binds both Zn^2+ and the Zn^2+/Peptide complex

Compound: O=C(O)c1ccccn1 [picolinic acid, 2-pyridine carboxylic acid]
- phase of cell cycle arrest [2]: blocked in G1
- cell cycle arrest of normal cells [3]: reversibly arrests normal cells at a specific point in the cell cycle (G1)
- binding site on the zinc finger peptide by NMR [1]: bind Zn (HIV1-F1) at a hydrophobic cleft
